Screen size: about 310,000 compounds; about 2,200 (0.71%) showed an effect of 50% or more. The effect is printed as a negative number. The list shows a part of the results.
Molecular target: human ether-à-go-go-related gene (hERG) potassium channel (human, UniProt Q12809)
Assay: primary screen, population patch clamp on CHO cells stably expressing hERG

human ether-à-go-go-related gene (hERG) potassium channel, sequence (Q12809 whole entry, looked up): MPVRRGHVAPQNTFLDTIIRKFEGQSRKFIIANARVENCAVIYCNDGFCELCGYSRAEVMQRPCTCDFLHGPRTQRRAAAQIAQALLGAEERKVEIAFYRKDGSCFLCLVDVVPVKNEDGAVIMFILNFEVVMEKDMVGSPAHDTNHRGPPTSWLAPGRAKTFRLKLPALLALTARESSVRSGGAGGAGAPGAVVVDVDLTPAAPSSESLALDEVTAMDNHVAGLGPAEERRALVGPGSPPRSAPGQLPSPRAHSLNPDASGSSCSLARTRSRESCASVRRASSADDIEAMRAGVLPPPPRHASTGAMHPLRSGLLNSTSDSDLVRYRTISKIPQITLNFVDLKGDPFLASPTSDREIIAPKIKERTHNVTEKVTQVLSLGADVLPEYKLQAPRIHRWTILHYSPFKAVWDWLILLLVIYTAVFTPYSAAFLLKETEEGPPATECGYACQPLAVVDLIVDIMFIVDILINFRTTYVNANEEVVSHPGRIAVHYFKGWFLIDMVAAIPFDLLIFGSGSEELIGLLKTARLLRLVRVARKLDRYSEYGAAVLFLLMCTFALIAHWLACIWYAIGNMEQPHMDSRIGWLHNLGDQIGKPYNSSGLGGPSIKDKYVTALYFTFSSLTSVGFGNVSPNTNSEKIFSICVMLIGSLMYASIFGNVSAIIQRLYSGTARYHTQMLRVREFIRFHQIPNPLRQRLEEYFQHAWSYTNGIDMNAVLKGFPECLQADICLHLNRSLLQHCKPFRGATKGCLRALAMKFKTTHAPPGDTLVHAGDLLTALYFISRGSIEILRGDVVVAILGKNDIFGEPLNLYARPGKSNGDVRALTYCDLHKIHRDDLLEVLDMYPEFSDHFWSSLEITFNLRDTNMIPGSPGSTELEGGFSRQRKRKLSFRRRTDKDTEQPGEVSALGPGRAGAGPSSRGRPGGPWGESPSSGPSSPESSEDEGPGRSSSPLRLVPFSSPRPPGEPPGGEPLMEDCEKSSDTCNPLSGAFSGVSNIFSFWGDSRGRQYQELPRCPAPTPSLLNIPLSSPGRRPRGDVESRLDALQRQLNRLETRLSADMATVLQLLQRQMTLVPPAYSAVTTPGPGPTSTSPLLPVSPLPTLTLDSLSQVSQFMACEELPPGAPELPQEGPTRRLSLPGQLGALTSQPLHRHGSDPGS

Compound	hERG current change (%, negative = inhibition) at 1uM
Cn1cccc1CC(=O)N/N=C/c1ccc(Cl)cc1	13.2%
COc1cc(-c2cc(-c3ccc(F)cc3)nc(N)c2C#N)ccc1O	12.9%
Cc1cc(C)n(-c2ccc(C(=O)OCC(=O)Nc3ccc(S(=O)(=O)N4CCCCC4)cc3)cc2)n1	12.9%
COc1ccc2c3c([nH]c2c1)C(C)NCC3 (stereo not shown)	-0.283%
COc1cc2c(C)nc3c(cnn3-c3ccccc3)c2cc1OC	-12.2%
CC(=O)C[C@H]1c2cc(C(F)(F)F)ccc2S(=O)(=O)N1C1CCCCC1	19.9%
CC(C)COC(=O)N1CC(O)CC1C(=O)Nc1ccc2c(c1)OCO2 (stereo not shown)	7.4%
CCOc1ccc(CCNC(=O)C2CCCN(S(=O)(=O)N3CCOCC3)C2)cc1OCC (stereo not shown)	5.6%
COC(=O)c1sccc1NC(=O)Cn1nnc(-c2ccc(C)cc2)n1	8.1%
CCOc1cc(C(=O)NC(=S)Nc2cccnc2)cc(OCC)c1OCC	4.17%
COc1ccc(C)cc1N(CC(=O)NCCSCc1cccc(Cl)c1)S(C)(=O)=O	8.1%
C/C(CC1CC(C)(C)OC1=O)=N/Nc1nc(-c2ccccc2)cs1 (stereo not shown)	5.22%
COC(=O)c1ccc(NC(=O)COC(=O)COc2cccc3c2OC(C)(C)C3)cc1	14.7%
Cc1ccc(NC(=O)C(C)N2C(=O)c3ccccc3S2(=O)=O)cc1Cl (stereo not shown)	10.7%
CNC[C@H](CC1CCCCC1)NC[C@H](CO)NCCc1cccc(C(F)(F)F)c1	1.9%
O=C(O)Cn1cc(C(=O)c2cccs2)c2ccccc21	8.25%
COc1ccccc1OCCC(=O)OCC(=O)NC(C)c1ccccc1 (stereo not shown)	7.63%
COc1cccc(N2CCN(C(=O)c3ccc(CS(=O)c4ccccc4C)o3)CC2)c1 (stereo not shown)	2.78%
Cc1nn(-c2ccccc2)c2sc(C(=O)n3cccn3)cc12	3.3%
CC(=O)N1Cc2cc(N)ccc2Oc2ccccc21	16.1%
CC(=O)c1cc(CN2CCC(C(=O)Nc3ccc(-n4nc(C)cc4C)cc3)CC2)cs1	5.63%
Cc1ccc(NC(=S)NCc2ccc(F)cc2)c(C)c1	13.9%
CC(=O)c1cccc(NC(=S)N2CCN(S(=O)(=O)c3ccc(F)cc3)CC2)c1	6.72%
O=C(NCc1ccccn1)C(=O)Nc1nc(-c2ccccc2)cs1	11%
Cn1nc(C(=O)NCc2ccco2)c2ccccc2c1=O	3.53%
O=C(CCSc1ccccc1)NC(=O)COC(=O)c1ccc(OC(F)F)cc1	2.99%
N#CCC(=O)N1CC2(CC(c3cccc(NC(=O)COc4ccc(Cl)cc4)c3)=NO2)C[C@@H]1C(N)=O (stereo partly shown)	5.41%
COc1ccc(NC(=O)Nc2cc(C)ccc2F)cc1	15%

Compound	hERG current change (%, negative = inhibition) at 1uM
O=C(Nc1ccccc1C(=O)N/N=C/c1ccc(O)cc1)c1ccccc1	8.37%
Cc1ccccc1-c1nnc(NC(=O)CSc2nc3ccccc3s2)s1	9.01%
CC(C)c1onc(C(=O)NCc2ccc(Cl)cc2)c1[N+](=O)[O-]	11.2%
CC(C)C[C@@H](CSc1ccc(Br)cc1)N1CCN(CCc2ccccc2)CCC1=O	-28.9%
Cc1nn(-c2ccccc2)c(Cl)c1C(=O)NCC(C)c1ccccc1 (stereo not shown)	12.3%
COCCCNC(=O)CCn1c(=O)c2ccccc2n(CC(=O)NCCc2ccc(OC)c(OC)c2)c1=O	8.61%
Cc1ccc(-c2nc(SCC(N)=O)c(C#N)c3c2CCCC3)cc1	-0.619%
COC(=O)c1cc(Cl)nc2ccccc12	3.37%
COc1ccc(N2C(=O)C3CCCN3C2c2cccc(C)c2)cc1Cl (stereo not shown)	0.486%
COc1ccc(N(CC(=O)NC2CCCC2)C(=O)CCC(=O)Nc2cc(C)on2)cc1OC	-7.47%
CCOC(=O)[C@]1(C#N)[C@@H]2C=CC(C(N)=O)=CN2[C@@H](C(N)=O)[C@@H]1c1ccc(F)cc1	13.7%
c1ccc(-c2ccc(C3=Nn4c(Cn5nnc6ccccc65)nnc4SC3)cc2)cc1	16.8%
COc1ccc(CCNC(=O)c2ccccc2NC(=O)c2ccco2)cc1OC	-11.3%
CO/N=C\CC(=O)Nc1ccc(Cl)c(Cl)c1	16%
CCn1nc2cc(C(=O)NCCc3cccs3)ccc2c1OC	-5.96%
O=C(COC(=O)c1cc(-c2ccccc2)nc2ccccc12)Nc1ccc2c(c1)OCO2	8.35%
Cc1ccc(-c2cc(C(=O)OCC(=O)Nc3ncc(C(F)(F)F)cc3Cl)c3ccccc3n2)cc1	12.6%
Cc1[nH]c2ccc(F)cc2c1CCNC(=O)C1CCCCC1C(=O)OCC(F)(F)F (stereo not shown)	0.936%
COc1ccc(N2C(=O)C(Cl)=C(N3CCOCC3)C2=O)cc1	10.2%
Cn1c(=NC(=O)CCl)sc2ccccc21	6.93%
C=CCn1c(SCCOc2ccc(OC)cc2)nnc1C(C)NC(=O)Cc1ccc(OC)cc1 (stereo not shown)	-3.16%
CCOc1ccc(/C=N/NC(=O)COc2ccccc2-c2ccccc2)cc1	11.1%
CN1C(C(=O)NCc2ccccc2)CC2Cn3c(nc4cc5ccccc5cc43)C21 (stereo not shown)	-21.3%
COC(=O)C(O)(c1ccc(N(C)C(=O)c2ccc(Cl)c(Cl)c2)cc1)C(F)(F)F (stereo not shown)	3.81%
CC(=O)Nc1c(O)n(C)c2ccccc12	12%
Cc1ccc(C(=O)CSc2nc3ccc(C(=O)NCCN4CCCCC4)cc3c(=O)[nH]2)cc1	9.89%
COc1cccc(SCc2noc(C(=O)NCc3ccccc3)c2C(=O)NCc2ccccc2)c1	15.7%

From PMC4336329 (PLoS ONE, 2015)
